Assay in all cases: Primary Screen for Target Class Profiling of Small Molecule Inhibitors of Methyltransferases
The target in test [1] is Guanidinoacetate N-methyltransferase (Homo sapiens) (UniProt Q14353). Conditions: purified enzyme, MTase-Glo SAH luminescence; measured here: GAMT inhibition; at 40 µM; stronger effect = lower value. In a few lines: (§1)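 Each enzyme was reacted with SAM and its substrate, with compounds tested once at 40 uM; SAH formed was read by MTase-Glo luminescence.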
Test [2] has as its target Nicotinamide N-methyltransferase (Homo sapiens) (UniProt P40261). The settings on record: purified enzyme, MTase-Glo SAH luminescence; measured here: NNMT inhibition; at 40 µM; stronger effect = lower value. In a few lines: as §1
Test [3] has as its target Phenylethanolamine N-methyltransferase (Homo sapiens) (UniProt P11086). The settings on record: purified enzyme, MTase-Glo SAH luminescence; measured here: PNMT inhibition; at 40 µM; stronger effect = lower value. In a few lines:
as §1

Test [4] concerns the target Glycine N-methyltransferase (Homo sapiens) (UniProt Q14749). The settings on record: purified enzyme, MTase-Glo SAH luminescence; measured here: GNMT inhibition; at 40 µM; stronger effect = lower value. In a few lines: as §1
In test [5] the target is Histamine N-methyltransferase (Homo sapiens) (UniProt P50135). The settings on record: purified enzyme, MTase-Glo SAH luminescence; measured here: HNMT inhibition; at 40 µM; stronger effect = lower value. In a few lines: as §1

Molecules are shown by their SMILES. Some of the results follow. These are further read-outs of the screen, such as a control signal, another cell line or another target. No call is given for them.

Here are results for 30 compounds from PubChem BioAssay AID1745853 (National Center for Advancing Translational Sciences (NCATS), 2022).
On the % scale 0 is the no-effect control and ±100 the full control effect.

Take `COc1ccc(C(=O)Nc2ccc3oc(-c4ccc(F)cc4Cl)nc3c2)cc1`: the activity change, negative = inhibition in test [1] was 6.84%; in test [2] it was -7.37%; in test [3], 3.42%.

With `COc1ccc(OC)c2c1cc1n2CC(C)(C(=O)NC2CCCCC2)N(Cc2cccnc2)C1=O` (stereo not given), the activity change, negative = inhibition is -78% in test [4]; -39.7% in test [1]; -1.62% in test [5]; -21.2% in test [2]; -74.1% in test [3].

Take `Cc1ccc(NC(=O)Cn2c(=O)oc3cc(S(=O)(=O)N4CCCCC4)ccc32)c(Cl)c1`: the activity change, negative = inhibition was -3.09% in test [4]; 0.535% in test [1]; 2.52% in test [5]; -1.37% in test [2]; -2.46% in test [3].

On to `CCCn1c(=O)c2ccc(C(=O)NC(C)C)cc2n2c(=O)n(CC(=O)Nc3cc(F)ccc3F)nc12`, for which the activity change, negative = inhibition is -1.33% in test [4]; 1.82% in test [1]; -1.57% in test [5]; -4.75% in test [2]; 1.06% in test [3].

Take `O=C(Nc1ccc(Br)cc1)N1Cc2c(sc3c2CCCC3)-n2cccc2C1c1ccccc1` (stereo not given): the activity change, negative = inhibition in test [4] was -3.25%; in test [1], -1.64%; in test [5] it was -4.57%; in test [2], -9.41%; in test [3] it was -2.11%.

As for `COc1cc2c(cc1OC)CN(CCc1ccc(NC(=O)c3cccc4c(=O)c5cccc(OC)c5[nH]c34)cc1)CC2`, the activity change, negative = inhibition in test [4] is -69.9%; in test [1], 0.65%; in test [5], -55.8%; in test [2], -88.2%; in test [3], -13.3%.

Regarding `Cc1ccc([S+](=O)([O-])N2CCCC2C(=O)N2CCC3(CC2)CC(=O)Nc2ccccc2O3)cc1` (stereo not given), the activity change, negative = inhibition is -5.88% in test [4]; 4.12% in test [1]; 3.25% in test [5]; -5.92% in test [2]; -2.04% in test [3].

As to `CC1(C(=O)NC2CCCCCC2)Cn2c(nc3ccccc32)C(=O)N1Cc1ccc2c(c1)OCO2` (stereo not given), the activity change, negative = inhibition in test [4] is 0.157%; in test [1], 1.83%; in test [5], 6.64%; in test [2], -3.9%; in test [3] it was 1.69%.

Regarding `CC1CCN(S(=O)(=O)c2ccc3c(c2)oc(=O)n3CC(=O)N2CCC(Cc3ccccc3)CC2)CC1`, the activity change, negative = inhibition in test [4] is -4.97%; in test [1], 0.183%; in test [5], 0.649%; in test [2] it was -1.26%; in test [3], -6.05%.

Regarding `CC(C)N1C(=O)C2(CCCC2)C1C(=O)NCCCN1CCc2ccccc2C1` (stereo not given), the activity change, negative = inhibition in test [4] was -6.31%; in test [1], 0.017%; in test [5] it was -2.03%; in test [2] it was 1.12%; in test [3], 1.92%.

In the case of `Cc1cc(NC(=O)Nc2ccc(F)c(F)c2)n(-c2ccccc2)n1`, the activity change, negative = inhibition is 1.23% in test [4]; 0.895% in test [1]; 3.39% in test [5]; -12.7% in test [2]; -2.59% in test [3].

For `Cc1ccc(C(=O)COC(=O)C(Cc2c[nH]c3ccccc23)NC(=O)c2ccc(C(C)(C)C)cc2)cc1` (stereo not given), the activity change, negative = inhibition is -1.65% in test [4]; 1.14% in test [1]; -6.23% in test [5]; -6.35% in test [2]; -7.82% in test [3].

In the case of `CC[C@]1(O)C[C@@H]2CN(CCc3c([nH]c4ccccc34)[C@@](C(=O)OC)(c3cc4c(cc3OC)N(C)[C@H]3[C@@](O)(C(=O)OC)[C@H](OC(C)=O)[C@]5(CC)C=CCN6CC[C@]43[C@@H]65)C2)C1`, the activity change, negative = inhibition in test [4] was -7.66%; in test [5] it was 7.22%.

As for `COc1ccc(NC(=O)Cn2nc3n(CCC(C)C)c(=O)c4ccccc4n3c2=O)cc1`, the activity change, negative = inhibition in test [4] is 1.24%; in test [1] it was 2.92%; in test [5], -0.21%; in test [2], -4.8%; in test [3], 1.28%.

In the case of `CS(=O)(=O)N(Cc1cccnc1)C1CN(C(=O)CCc2c[nH]c3ccccc23)C1`, the activity change, negative = inhibition was -6.36% in test [4]; 0.132% in test [1]; 0.788% in test [5]; -1.76% in test [2]; 2.27% in test [3].

In the case of `O=C(c1nc2ccccc2n(C2CCCC2)c1=O)N1CCCC1`, the activity change, negative = inhibition in test [4] was -4.29%; in test [1], -10.7%; in test [5] it was -0.765%; in test [2], -23.6%; in test [3], -12%.

`CCN1CCN(C(=O)C2CCc3nnc(-c4cccc(C(F)(F)F)c4)n32)CC1` (stereo not given): the activity change, negative = inhibition was -1.12% in test [4]; 0.125% in test [1]; 1.02% in test [5]; -2.16% in test [2]; 1.34% in test [3].

On to `CCCN1C(=O)c2cc(C(=O)NCCCOCC)nn2CC1(C)C(=O)NC1CCCC1` (stereo not given), for which the activity change, negative = inhibition worked out at 3.89% in test [4]; 0% in test [1]; 5.24% in test [5]; 1.75% in test [2]; 1.55% in test [3].

For the compound `Cc1ccc2nc(CO[C@H]3CN(C4CCN(C)CC4)C[C@H]3F)[nH]c2c1`, the activity change, negative = inhibition was -2.52% in test [4]; 0.892% in test [1]; -18.5% in test [5]; -9% in test [2]; 8.77% in test [3].

`COc1ccccc1CNC(=O)C[C@@H]1c2nc(-c3cccnc3)sc2C[C@@H]2[C@](C)(CO)[C@H](O)CC[C@]21C`: the activity change, negative = inhibition was -8.08% in test [4]; -3.38% in test [1]; -7.27% in test [5]; -0.849% in test [2]; -1.29% in test [3].

Turning to `COc1cccc(CN2CCCCC2c2nc(CCOCC3CCOCC3)no2)c1` (stereo not given), the activity change, negative = inhibition in test [4] is -0.865%; in test [1] it was -3.39%; in test [5], -0.476%; in test [2] it was 1.13%; in test [3], 3.51%.

`CCCN1CCC(N2CCCC(Cc3ccccc3)(C(=O)OCC)C2)CC1` (stereo not given): the activity change, negative = inhibition in test [4] is -1.48%; in test [1] it was -1.8%; in test [5] it was -2.88%; in test [2], -8.33%; in test [3], 2.36%.

On to `COCCNc1cc(-c2ccc3ccccc3n2)c2cc[nH]c2n1`, for which the activity change, negative = inhibition is -23.1% in test [4]; -13.8% in test [1]; -19.3% in test [5]; -16.3% in test [2]; -40.4% in test [3].

For the compound `COC(=O)c1ncn2c1C(=O)N(Cc1ccccc1F)C(C)(C(=O)NC1CCCCCC1)C2` (stereo not given), the activity change, negative = inhibition in test [4] was 6.11%; in test [1], 1.58%; in test [5] it was 5.28%; in test [2], 4.5%; in test [3] it was 3.27%.

For the compound `Cc1cc(CS(=O)(=O)c2ccccc2)cc(OCc2ccc(CN3CCC[C@@H]3CO)cc2)c1`, the activity change, negative = inhibition in test [4] is -9.77%; in test [1], -1.21%; in test [5], -41.7%; in test [2], -28.2%; in test [3], -25.4%.

On to `CCCS(=O)(=O)Nc1ccc([C@H]2OCC(=O)N(CC(=O)N(C)C)[C@@H]2CO)cc1`, for which the activity change, negative = inhibition in test [4] was -0.08%; in test [1], -5.74%; in test [5] it was 1.05%; in test [2] it was -7.59%; in test [3], -2.04%.

Turning to `COc1ccc2[nH]c(C[C@@H]3C[C@@H](C(C)C)[C@H](CNC(=O)c4cccnc4)C=C3C)nc2n1`, the activity change, negative = inhibition in test [4] is -14.6%; in test [1] it was -7.36%; in test [5], -27.3%; in test [2], -35.3%; in test [3] it was -15.3%.

`CNC(=O)[C@@H]1CN(C(=O)Cc2cc(C)no2)C[C@H]1COC`: the activity change, negative = inhibition is 45% in test [4]; 0.801% in test [1]; 2.31% in test [5]; -1.27% in test [2]; 0.722% in test [3].

Take `CSc1ccc(CCNC(=O)CCn2ccc3cc(S(=O)(=O)N4CCCCC4)ccc32)cc1`: the activity change, negative = inhibition was 0.726% in test [4]; 2.5% in test [1]; -1.87% in test [5]; -5.77% in test [2]; -0.75% in test [3].

Take `CN(CC(=O)NC1CCCC1)S(=O)(=O)c1ccc2[nH]c3c(c2c1)CCCC3`: the activity change, negative = inhibition in test [4] was -1.15%; in test [1], 0%; in test [5], 5.83%; in test [2] it was 0.755%; in test [3] it was 4.19%.
